# Experimental data from the supplement of paper PMC3334620.
# The full ranking holds about 33,000 sequences; the median of “E-score (-0.5 to 0.5)” is about -0.035, and the highest 2% start at about 0.34. The list shows a part of the results.
# Target: T1, Mot3 (UniProt P54785)
# T1 sequence: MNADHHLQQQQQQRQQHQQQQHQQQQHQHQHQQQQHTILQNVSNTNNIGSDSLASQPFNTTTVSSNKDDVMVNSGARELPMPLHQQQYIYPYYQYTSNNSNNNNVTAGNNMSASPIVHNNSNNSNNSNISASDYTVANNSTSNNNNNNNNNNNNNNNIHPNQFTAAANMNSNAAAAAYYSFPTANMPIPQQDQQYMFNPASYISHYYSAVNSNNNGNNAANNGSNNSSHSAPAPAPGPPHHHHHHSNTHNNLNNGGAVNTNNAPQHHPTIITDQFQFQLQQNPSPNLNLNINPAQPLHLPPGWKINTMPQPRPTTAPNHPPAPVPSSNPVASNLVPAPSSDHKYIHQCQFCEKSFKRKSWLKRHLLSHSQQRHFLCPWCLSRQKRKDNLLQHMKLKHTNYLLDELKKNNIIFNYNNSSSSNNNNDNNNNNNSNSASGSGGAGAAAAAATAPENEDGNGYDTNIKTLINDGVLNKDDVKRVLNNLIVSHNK
# Assay: PBM E-score (8-mer binding enrichment) (E-score (-0.5 to 0.5)); higher = stronger / more preferred TF binding; most listed sequences are background and not binding sites
# Conditions: protein concentration: 200 nM; construct: GST-full length
# Method in brief: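 Using PURExpress in vitro transcription/translation, GST-tagged yeast transcription factors were made in full-length or DNA-binding-domain form. These were applied at about 100-200 nM to double-stranded universal all-10-mer Agilent arrays, and bound protein was detected with fluorescent anti-GST. Scans were normalised with masliner before the Universal PBM Analysis Suite assigned E-scores to ungapped eight-base words pooled with their reverse complements.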
row,Sequence,PBM E-score
1,AGAACGTG,0.146
2,AATAACAT,0.349
3,AACTTCGA,0.0212
4,CTCAGATA,-0.0831
5,TAGGGTCA,-0.0851
6,ACATCGAC,0.00335
7,AATTTACT,0.174
8,CAACCTTG,0.128
9,CGGTGGGC,-0.107
10,AGCAGTGC,-0.105
11,TAGGCGGA,-0.0561
12,TTGCGCAA,0.015
13,GTAACATA,0.26
14,GTTTGCTA,0.0249
15,CCACTATC,-0.259
16,TTAACGAA,0.128
17,GAACTTAA,0.0502
18,CTTCCGCC,-0.22
19,ATCATTGA,0.0882
20,ATGAGAGC,-0.0809
21,GTATGACA,0.144
22,GGTTCCGA,-0.286
23,GAACCCTC,-0.176
24,CATAGTAC,0.0345
25,GTACCCAC,0.0626

row,Sequence,PBM E-score
1,CGAACTAG,-0.0758
2,CGTCTATC,-0.00811
3,CAGTTTCA,-0.0919
4,CTTGTAGA,0.215
5,GCGAACTA,-0.0334
6,ACCATCAC,-0.0576
7,CGACCGGC,-0.233
8,GGGTACAA,-0.012
9,CGGCAAAG,-0.226
10,ACGTTTCA,0.192
11,AGCATTGC,-0.111
12,AACGGAGG,-0.0591
13,AGACGTGC,0.0368
14,GCGTAAGA,0.253
15,AGCCTGTA,0.342
16,AACTCTGT,-0.126
17,CGCCTACC,0.0721
18,GACTACCC,-0.199
19,AATAGGCG,0.215
20,AAAATCCA,0.0654
21,AGCATAAG,0.0413
22,ACTTGATC,-0.103
23,GGACGTTA,0.19
24,GTCCTACA,0.0423
25,AATCTGTA,0.124

row,Sequence,PBM E-score
1,ATCACATC,-0.0185
2,AGTAATCG,0.184
3,AACTAGCA,-0.0161
4,GTTGGTCA,0.0627
5,ACATCCTG,0.183
6,AAACATCT,0.105
7,GGTATCCA,-0.0998
8,GCGTTCCC,-0.134
9,AGATCTGC,0.116
10,AGACTGCT,-0.289
11,AACCATGT,0.299
12,GCAACACA,0.203
13,ACCGAATG,0.00173
14,GAGAGGGC,-0.329
15,ACCTCTGA,-0.206
16,AGTCTAAC,-0.126
17,AAACGCCG,0.0313
18,ATCACCAT,0.108
19,AACAATAA,0.204
20,CCGTCAAG,-0.0863
21,CAACGGGG,-0.149
22,ATTCACCG,-0.125
23,GTATCGAC,-0.0352
24,CATTTAAC,0.28
25,CTCGCCAC,-0.196

row,Sequence,PBM E-score
1,CCCAAGGA,-0.0628
2,ATCCATAA,-0.166
3,GATGCATC,0.0564
4,AGCATTCA,-0.221
5,AAAGGCCC,0.147
6,ACATCAGA,-0.00156
7,AGTGATTC,-0.113
8,ACGGTAAT,-0.0828
9,ATCTTGGG,-0.157
10,CGAGATGA,-0.284
11,CCCCTGGC,-0.327
12,CAGTGAAG,0.0639
13,AACCTGGC,-0.00883
14,ACTAATTC,0.106
15,CAAGGTGC,0.0747
16,GACTAATC,-0.182
17,GTCCCAAC,-0.158
18,GTAGAGTA,0.163
19,GGTCACAA,-0.101
20,AACTAGGA,0.0811
21,TAATGTCA,0.139
22,GAAGATAC,-0.078
23,CCCACCCA,-0.263
24,CTATTTGA,0.0907
25,AGAACTTC,-0.11

row,Sequence,PBM E-score
1,AGTATTAT,0.102
2,AACTATGG,-0.0254
3,GCTAGGCC,-0.374
4,CCTGACGC,-0.225
5,AAAGGTTG,-0.17
6,CAAAAATG,0.0761
7,AGGACAGG,-0.0754
8,AACGAACG,-0.0159
9,CTTGTCTA,0.064
10,AAGGCTCC,0.252
11,CCGACCCC,-0.181
12,CTCGTTAC,0.0497
13,TATGTCGA,0.196
14,CTCTGCGA,-0.116
15,AAATACGT,0.237
16,CTTCTTGA,-0.0691
17,CTTTACAA,0.326
18,AGATCCCA,-0.127
19,AGACGCTC,-0.394
20,CTATCACC,-0.123
21,GTTAACGA,0.179
22,CAGCTGGA,-0.104
23,ACTGGACG,-0.17
24,GCACTAAA,0.188
25,GGCGAATA,-0.0303

row,Sequence,PBM E-score
1,ACCAGAGA,-0.178
2,GGAGTCAA,-0.218
3,AGATTGTC,-0.0677
4,CGTTAGTA,0.0806
5,GATAACCA,-0.155
6,CGGTCTAC,-0.0115
7,AACAATCG,-0.0422
8,GGCTGACC,-0.33
9,ATAGGCGA,-0.00899
10,AGGACATG,0.0997
11,TCGAGCAA,0.158
12,TCGGAGAA,-0.132
13,CGACGAGC,-0.129
14,ACTGGGGC,-0.203
15,CCTTAAGC,0.0192
16,CACTGCTA,0.0645
17,ACGCGGGG,0.0777
18,ACAGTAAC,0.11
19,GGCACGCA,0.348
20,CCCCTAGC,-0.266
21,AGACCTAG,-0.154
22,CAATCCTA,-0.125
23,AGTCGGGG,-0.213
24,AACTAGTG,-0.0349
25,CGTCCGAG,-0.107

row,Sequence,PBM E-score
1,AGGTATGC,0.0371
2,AAGGGCGC,0.0329
3,CCGGCCAC,-0.377
4,ACTAAGTA,0.109
5,ATAGTGCG,-0.167
6,AACACGGA,0.252
7,CATCTACC,-0.121
8,GCAGGCGA,0.123
9,GACAGGTC,-0.152
10,CGGACTTA,0.00405
11,CAGCGTTA,0.00794
12,TAAATAAA,0.141
13,GATAACGA,0.11
14,GACTCGCA,-0.245
15,AGTCTGCA,-0.211
16,AAGTCTGG,-0.00866
17,ATCATATG,0.0526
18,CAGCAGCA,-0.117
19,CACAATGA,0.05
20,CAAAATTG,-0.0242
21,CCCTCTAG,-0.0447
22,ATGTAGAG,0.252
23,ATCCATCG,-0.2
24,CCGATACA,-0.00192
25,CCCTCTGC,-0.151

row,Sequence,PBM E-score
1,AATCGGTC,-0.115
2,CACAGTAG,0.0475
3,CCATCTTA,-0.172
4,CGAGGGAG,-0.264
5,ACTAGTTG,-0.109
6,GTACAGAC,0.125
7,ATGCTGCG,-0.101
8,AATGGCGG,-0.349
9,CTCAAACC,-0.113
10,ATAAAACA,0.206
11,ACCTCGTA,0.0898
12,CGCCACAC,-0.131
13,CCATAGCA,-0.219
14,GACTGCGC,-0.133
15,AGTCGGGA,-0.232
16,AACCCGGC,-0.199
17,CGGATGAA,-0.0834
18,CTTTAAAC,0.162
19,GCTCTTCA,-0.238
20,CATACTCA,0.0609
21,TAGGGGCA,-0.148
22,CTGTCGAA,0.125
23,CAAGGAAC,0.43
24,AGGCCAAA,-0.028
25,CCGCTCGC,-0.325

row,Sequence,PBM E-score
1,CAATGCTA,-0.0366
2,CGTTTGCA,-0.0501
3,AGCTAACG,0.00459
4,AAGATTCG,-0.0684
5,GCTTAAGA,-0.0368
6,AAAGCAAG,0.0192
7,AGTGATAA,-0.173
8,AAGACCTC,-0.3
9,TCAGCCGA,-0.216
10,ACCCATAG,-0.206
11,CTCAAGGA,0.0622
12,AAGCGCTG,0.00897
13,ACCCGTTA,0.0678
14,AAATAAGA,-0.00703
15,ATATAAGA,0.0589
16,CCTCGCTA,-0.228
17,CTGTTACA,0.166
18,GCAGGACA,-0.0645
19,GAAGATCC,-0.129
